# Laboratory results taken from paper PMC12136788.
# The list shows a part of the results.
# T1: UNK ZnF1-3 (human, UniProt Q9C0B0 31-174)
# T1 sequence: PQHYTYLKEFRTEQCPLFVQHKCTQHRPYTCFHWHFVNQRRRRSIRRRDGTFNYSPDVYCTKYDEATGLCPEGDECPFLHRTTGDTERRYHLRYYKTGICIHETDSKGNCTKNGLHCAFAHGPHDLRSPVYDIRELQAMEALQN
# B1: 89559380_89559500_3313_3pUTR_ENSMUSG00000027950_ENSMUST00000029562|mouse|control|control (ssRNA)
# RNA: GGGAGUUCUACAGUCCGACGAUCUGCAGGUCUCCACAGAGGCAGGGGGCCUGUGGGCCAUCUGCCUAGGCAAAGGCGGCUGCCAGGUUACUGGAGCUUAGUCCCUGAUUCGAGUCCCCAACACCUUUCAUCACUGCCACUCCCCAACAGAGGAUUGAGCAUCA
# B2: chr1:89340274:89340275:+_ENSMUSG00000048000_ENSMUST00000174671|mus_mus|FALSE|FALSE (ssRNA)
# RNA: GGGAGUUCUACAGUCCGACGAUCUUGGCACGGCGUUCAAGGAACUGCUUGGCAAACUCCUUGGCCUCGGAAGUAUCUCCUAAAUAGGCCCUGGUAUAGUCAUGGACUUCAUAAGGAGACUCCACUUCUUUCAAGAAAGAAACACAACAGAGGAUUGAGCAUCA
# B3: chr14:94545736:94545737:-_ENSG00000089737_ENST00000330836|hu_hu|FALSE|FALSE (ssRNA)
# RNA: GGGAGUUCUACAGUCCGACGAUCCUCCAGCUCAGGAUCUUUCACUUCAAAUUCUUUCUGGGUACUGGUUCCUUCAGUUGCUACAUUUUUACUUUUCUUCAACUUGAUCUUUUUCUUUGGUGAGCUAGACUUUCCCUCCUCCUCCAACAGAGGAUUGAGCAUCA
# B4: chr11:46405157:46405158:+_ENSG00000110492_ENST00000395566|hu_hu|hu_hu_hu_mus_False|18_78 (ssRNA)
# RNA: GGGAGUUCUACAGUCCGACGAUCCCCUCCCCACUUUGGGCACUUGGUGUGGGCGUGAAGGCAGGGCCGUGAUUGACAGAGCUGACAGGAAGACAAAAGGCACUGGUGGGUUAUAUCUCGGGCCUGGGGGAGAGGAGGGCUCCGCAACAGAGGAUUGAGCAUCA
# B5: chrX:71549400:71549401:+_ENSMUSG00000019087_ENSMUST00000019231|mus_hu|mus_mus_mus_hu_False|58_98 (ssRNA)
# RNA: GGGAGUUCUACAGUCCGACGAUCGCAGUAGGAAGAGCAAACCUUUCCAGUCCAGUGCGCUGCAGGGUGGGAAAGCACAACCUAGACCACCGUCCCACCCUCAACCCCCCCACUGGCACAGGGUCACACAAUCUGGGUCAAAGACAACAGAGGAUUGAGCAUCA
# B6: chr7:44244176:44244177:+_ENSG00000106636_ENST00000223369|hu_mus|hu_hu_hu_mus_False|1_98 (ssRNA)
# RNA: GGGAGUUCUACAGUCCGACGAUCACUGUCGCUCCGGACGUAGACGUGGCAAAGAUACUCUUGUUCUUUGACAGAAGCUCUGCUGCCUUUCCCCGAGCGUUCCACAAUCAGUUGACUUGUAAAGGUCAUGAAUUCCUGAACGCUCAACAGAGGAUUGAGCAUCA
# Molecular target: T1, UNK ZnF1-3
# Assay: nsRBNS (natural sequence RNA bind-n-seq); RBNS binding buffer (assumed for nsRBNS): 25 mM Tris pH 7.5, 150 mM KCl, 3 mM MgCl2, 0.01% Triton X-100, 500 ug/ml BSA, 20 U/ml SUPERase-In, 4 C; UNK is unkempt and MSI1 is Musashi-1; names of the RNAs are library labels; protein concentration not given here; high values mean tight binding
row,Binder,binding signal [enrichment R]
1,B1,1.15
2,B2,0.673
3,B3,0.424
4,B4,2.65
5,B5,0.815
6,B6,0.508
